Reference: paper PMC4336329 (PLoS ONE, 2015)
Among all 310,000 compounds or so, about 14,000 (4.5%) showed an effect of 50% or more. Effects have a minus sign here. The list shows a part of the results.

The compounds below were run against human ether-à-go-go-related gene (hERG) potassium channel (human, UniProt Q12809) (assay: primary screen, population patch clamp on CHO cells stably expressing hERG).
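Note: peak tail current of the secondary pulse compared with the same well before compound.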

Chain of human ether-à-go-go-related gene (hERG) potassium channel (Q12809 whole entry, looked up): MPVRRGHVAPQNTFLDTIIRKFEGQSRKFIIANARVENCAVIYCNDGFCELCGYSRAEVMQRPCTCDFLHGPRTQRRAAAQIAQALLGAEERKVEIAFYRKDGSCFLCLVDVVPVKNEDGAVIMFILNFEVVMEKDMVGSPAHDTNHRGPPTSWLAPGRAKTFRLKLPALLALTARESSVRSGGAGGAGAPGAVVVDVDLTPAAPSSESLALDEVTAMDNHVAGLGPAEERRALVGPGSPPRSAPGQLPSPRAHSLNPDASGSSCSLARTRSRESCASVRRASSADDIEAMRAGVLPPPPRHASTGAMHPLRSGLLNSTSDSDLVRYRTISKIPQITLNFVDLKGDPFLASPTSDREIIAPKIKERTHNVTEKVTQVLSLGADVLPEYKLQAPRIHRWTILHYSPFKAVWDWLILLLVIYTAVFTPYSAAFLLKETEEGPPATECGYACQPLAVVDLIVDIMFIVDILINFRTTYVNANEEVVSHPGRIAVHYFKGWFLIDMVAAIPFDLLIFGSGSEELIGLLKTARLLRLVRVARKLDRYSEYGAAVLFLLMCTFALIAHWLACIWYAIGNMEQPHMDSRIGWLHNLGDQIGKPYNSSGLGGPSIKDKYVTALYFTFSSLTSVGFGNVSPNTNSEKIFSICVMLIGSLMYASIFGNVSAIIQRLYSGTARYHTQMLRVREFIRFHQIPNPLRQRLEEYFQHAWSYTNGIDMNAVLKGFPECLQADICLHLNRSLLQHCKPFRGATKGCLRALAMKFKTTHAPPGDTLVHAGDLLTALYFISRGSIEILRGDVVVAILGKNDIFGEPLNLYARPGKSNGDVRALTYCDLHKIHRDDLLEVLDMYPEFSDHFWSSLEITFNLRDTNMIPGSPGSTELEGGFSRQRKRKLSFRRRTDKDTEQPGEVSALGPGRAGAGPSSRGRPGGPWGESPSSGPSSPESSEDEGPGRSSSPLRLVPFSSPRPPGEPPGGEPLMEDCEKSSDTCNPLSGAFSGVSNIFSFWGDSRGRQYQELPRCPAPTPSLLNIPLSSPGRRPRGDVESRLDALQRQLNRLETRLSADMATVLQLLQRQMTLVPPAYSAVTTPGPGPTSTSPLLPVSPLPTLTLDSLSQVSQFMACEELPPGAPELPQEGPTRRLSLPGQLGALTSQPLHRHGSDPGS

Row | SMILES | hERG current change (%, negative = inhibition) at 10uM
1 | CCOc1ccc(/C=C/C(=O)c2c(O)c3ccccc3oc2=O)cc1 | -2.13%
2 | CCCOP(=O)(c1ccc(N(C)C)cc1)C(O)c1ccc(Cl)cc1 (stereo not drawn) | 9.5%
3 | OCCC1CN(Cc2cccc(OC3CCCC3)c2)CCN1Cc1ccsc1 (stereo not drawn) | -70%
4 | CC(C)(Oc1ccc(-c2ccco2)cc1)C(=O)O | 5.04%
5 | O=C(c1ccccc1F)N1CCN(C(=O)C2CC2)CC1 | 11%
6 | CCC(CC)C(=O)N1N=C(c2ccc(NS(C)(=O)=O)cc2)CC1c1ccc(C)cc1 (stereo not drawn) | -7.85%
7 | O=C(Cc1cccs1)Nc1cccc(-c2nnc(-c3ccco3)o2)c1 | -8.31%
8 | CCN(CC)c1ccc2cc(-c3nc4ccccc4[nH]3)c(=O)oc2c1 | 14.5%
9 | CC(Sc1ccc2c(c1)OCCO2)C(=O)Nc1ncc(Cl)cc1Cl (stereo not drawn) | -8.66%
10 | Cc1cc(C)n2nc(C(=O)OCC(=O)NCc3ccc(Cl)cc3)nc2n1 | -48.3%
11 | CC(Oc1ccccc1)C(=O)N1CCN(C(=O)C(C)Oc2ccccc2)CC1 (stereo not drawn) | 8.52%
12 | CCn1c(SCC(=O)Nc2nnc(C)s2)nnc1-c1ccco1 | -5.98%
13 | CCOC(=O)c1sc2cc([N+](=O)[O-])cc(SCC(=O)OC)c2c1N | -9.57%
14 | O=S(=O)(c1cccc(NC(=S)N2CCN(c3cccc(Cl)c3)CC2)c1)C(F)F | -1.33%
15 | C/C(=N/NC(=O)c1cc(-c2cccc([N+](=O)[O-])c2)n[nH]1)c1cccc(O)c1 | 28.3%
16 | O=S(=O)(Nc1ccc(-n2cccc2)cc1)c1ccc(F)cc1 | 8.83%
17 | COc1ccc(NC(=O)/C=C/c2ccc(F)cc2)cn1 | 4.03%
18 | CC(=O)c1sc(NC(=O)CCS(=O)(=O)c2ccc(C)cc2)nc1C | 3.57%
19 | CC(NC(=O)CSc1nnc2n1CCCCC2)c1ccccc1Cl (stereo not drawn) | -6.43%
20 | CCc1cc2c(NCc3ccco3)ncnc2s1.Cl | -17.8%
21 | O=C(c1ccc2ncsc2c1)N1CCCCC1 | 17.9%
22 | Cc1cc(NC(C)c2ccccc2)n2ncc(-c3ccccc3)c2n1 (stereo not drawn) | 4.37%
23 | CCCCn1ccnc1C(=O)c1ccc(S(=O)(=O)N2CCCC2)cc1 | -28.9%

Row | SMILES | hERG current change (%, negative = inhibition) at 10uM
24 | O=C(c1cc(-c2cccc(Cl)c2)on1)N1CCN(c2ccc(F)cc2)CC1 | 6.92%
25 | CC/C(=C\C1CCCCC1)C(NP(=O)(c1ccccc1)c1ccccc1)c1ccccc1 (stereo not drawn) | 12.6%
26 | O=C(COC(=O)c1ccccc1F)NC(=O)NC1CCCC1 | 1.24%
27 | COc1ccc(CCN2CC(C(=O)NCC3(O)CCCCC3)CCC2=O)cc1 (stereo not drawn) | 17.1%
28 | COc1ccc(C(=O)NCC(=O)N/N=C(\C)c2ccco2)cc1OC | 14.8%
29 | CCOc1ccc(NC(=O)CCC(=O)N/N=C/c2ccc([N+](=O)[O-])s2)cc1 | -20.6%
30 | CCn1c(CC(=O)Nc2cccc(OC)c2)nnc1SCC(=O)N1CCN(c2ccccc2)CC1 | -11.5%
31 | COCCNC(=O)c1ccc(CS(=O)(=O)c2c(Cl)cccc2Cl)o1 | 0.994%
32 | COCCn1c(SCC(=O)NNC(=O)c2ccccc2)nc2ccccc2c1=O | -29.4%
33 | Cc1cc(NC(=O)CSc2nccn2C)no1 | -1.04%
34 | O=C(CCC1CCCCC1)Nc1cc(C(F)(F)F)ccc1N1CCOCC1 | -2.19%
35 | COc1ccc(NC(=O)CSc2nnc(-c3cccs3)n2N)c(OC)c1 | 0.565%
36 | O=C(O)c1cccc(-n2cccc2/C=N/O)c1 | 11.4%
37 | Cc1sc2ncn(CCn3cnc4sc(C)c(C)c4c3=O)c(=O)c2c1C | -19.3%
38 | CC1CCN(C(=O)COC(=O)c2cn(C)c3ccccc23)CC1 | -10.5%
39 | NC(=S)Cc1nc(-c2ccccc2)cs1 | 16%
40 | O=C(NCc1cccnc1)c1ccc(-c2ccccc2[N+](=O)[O-])o1 | -23.5%
41 | COC(=O)c1cccc(NC(=O)Cc2ccsc2)c1 | 1.14%
42 | Cc1cccc(CNC(=O)c2ccccc2NC(=O)C2=CSCCO2)c1 | 21.1%
43 | Cc1ccc(-n2nc3c(c2NC(=O)c2ccccc2Br)CS(=O)C3)cc1 (stereo not drawn) | 4.13%
44 | NC(=O)C1CCCN(S(=O)(=O)c2ccc(Br)cc2)C1 (stereo not drawn) | -8.17%
45 | COc1ccc(Cn2c(O)c(C=NCCN3CCOCC3)c(=O)[nH]c2=O)cc1 | -14.4%
46 | CN(CC(=O)N1CCCC1)S(=O)(=O)c1ccc(Cl)cc1 | -10.2%

Row | SMILES | hERG current change (%, negative = inhibition) at 10uM
47 | C=CCN1C(=NC(=O)CC)SC2CS(=O)(=O)CC21 (stereo not drawn) | 25.3%
48 | CC(C(=O)c1ccc(Br)cc1)[n+]1cccc2ccccc21.[Br-] (stereo not drawn) | -13.8%
49 | Cc1cccc(-n2cc(C(=O)O)c(=O)cc2C)c1 | 16.1%
50 | COc1ccc(C)cc1C(=O)C1CC(C(=O)O)C(C)(C)C1C (stereo not drawn) | -2%
51 | Cc1ccccc1NC(=O)c1ccccc1O | 9.03%
52 | O=C(c1ccccn1)N1CCCC(N2CCN(c3ccccc3)CC2)C1 (stereo not drawn) | 4.01%
53 | CC(C)(C)N/N=C/c1cc(Cl)cc([N+](=O)[O-])c1O.Cl | -10.9%
54 | CC1CN(S(=O)(=O)c2cccc(C(=O)OCCOc3ccccc3)c2)CC(C)O1 (stereo not drawn) | -1.04%
55 | CCC(NC(=O)NNC(N)=S)(C(F)(F)F)C(F)(F)F | 4.3%
56 | COC1CCCN(Cc2c(C(=O)N3CCc4ccccc4C3)nc3ccc(Cl)cn23)C1 (stereo not drawn) | -35.9%
57 | O=C1NC2(C=Cc3c(ccc4ccccc34)O2)Oc2ccccc21 (stereo not drawn) | 16.4%
58 | CC1Cc2ccccc2N1C(=O)CN1CCN(Cc2ccccc2)CC1.O=C(O)C(=O)O (stereo not drawn) | -11.8%
59 | Cc1cc(C)n(CC(=O)c2cccc([N+](=O)[O-])c2)n1 | 15.3%
60 | CCC1CCCCN1C(=O)c1ccccc1OC1CCN(S(C)(=O)=O)CC1 (stereo not drawn) | 21.2%
61 | COc1ccc(C(=O)Nc2ccccc2C(=O)N2CCOCC2)cc1 | 15.2%
62 | CC1(C)CC(=O)N(c2cccc(Cl)c2)C(=O)C1 | 10.4%
63 | OCC(CBr)(CBr)CBr | 16.5%
64 | O=C(Nc1ccc2nc3n(c(=O)c2c1)CCCCC3)C(=O)N1CCN(c2ccccc2F)CC1 | 14.2%
65 | COc1ccc(-c2cc(CNS(=O)(=O)c3ccc(F)cc3)on2)cc1 | 16.7%
66 | Cc1ccc(CNC(=O)COC(=O)c2ccc(Cl)c(N)c2)cc1 | -3.37%
67 | COc1ccc(CCNC(=O)c2ccccc2)cc1 | 5.73%
68 | CCOc1ccc(N2CC(NS(=O)(=O)c3cccs3)CC2=O)cc1 (stereo not drawn) | 4.66%
69 | CCOc1ccc(Nc2nc(Cc3nnc(SCC(=O)N(CC)CC)n3C)cs2)cc1 | -23.1%

Row | SMILES | hERG current change (%, negative = inhibition) at 10uM
70 | Cc1cc(NC(=O)c2cccc(Br)c2)n[nH]1 | 4.84%
71 | Cc1nc2ccc(NC(=O)c3ccc4ccccc4n3)cc2s1 | 14%
72 | O=C(O)c1ccccc1S(=O)(=O)Cc1ccccc1 | -0.597%
73 | Nc1nc(SCC(=O)Nc2cc(C(F)(F)F)ccc2Cl)[nH]c(=O)c1NC(=O)c1ccco1 | 22.5%
74 | COc1ccc(NC(=O)C2(c3ccc(NC(=O)c4ccc(OC(C)=O)cc4)cc3)CCCC2)cc1 | 11.1%
75 | O=C(CSc1ccc(-c2ccco2)nn1)NC1CCCCC1 | -20.3%
76 | COc1ccc(CCNC(=O)CCS(=O)(=O)c2ccc(Br)cc2)cc1OC | -17.1%
77 | C=CCN1C(=O)/C(=C/c2ccc3c(c2)CCCN3CCC)C(=O)NC1=S | -0.0356%
78 | CC(CNC(=O)c1ccc(N)cc1)NC(=O)c1ccc(N)cc1 (stereo not drawn) | 9.03%
79 | C=CCn1sc(=N)c(C#N)c1N | -19.8%
80 | O=C(O)C1=C[C@H](c2ccc(F)cc2)C[C@H](OCc2ccc(CO)cc2)O1 | 4.49%
81 | O=C1C2C3C=CC(CC3)C2C(=O)N1c1cccc(Br)c1 (stereo not drawn) | 22.1%
82 | COc1ccc(NS(=O)(=O)c2cc(NC(=O)/C=C/c3cc(OC)c(OC)c(OC)c3)ccc2N2CCCCC2)cc1 | 1.67%
83 | Cc1cnc(CNC(=O)C2CCC(=O)N(CCc3cccc(F)c3)C2)[nH]1 (stereo not drawn) | 10.6%
84 | CCN(CC)C(=O)C(Sc1nnnn1-c1ccc(O)cc1)c1ccccc1 (stereo not drawn) | -1.03%
85 | COc1ccc(C)cc1NC(=O)C(Sc1nnc2ccccn12)c1ccccc1 (stereo not drawn) | -67.7%
86 | CN(C(=O)NC1CC(=O)N(c2ccc3c(c2)OCCO3)C1)c1ccccc1 (stereo not drawn) | -5.44%
87 | CCCCn1c(N)c(N(CC(C)C)C(=O)c2cc(-c3ccncc3)nc3ccccc23)c(=O)[nH]c1=O | 6.7%
88 | Cc1cc(C(=O)OCC(=O)Nc2sc3c(c2C#N)CCC(C)C3)c2ccccc2n1 (stereo not drawn) | 5.2%
89 | CCOC(=O)c1cnc(-n2nc(C)cc2C)nc1NC | -9.96%
90 | CCOc1ccccc1NC(=O)Cn1nnc(C(=O)NCc2cccs2)c1N | 13.4%
